Among the data in PubChem BioAssay AID463173 (ICCB-Longwood Screening Facility, Harvard Medical School, 2010) are survival values, retold here.

The structures appear in SMILES notation. The campaign covered roughly 52,000 compounds. About 4,300 (8.3%) were called active. No stated cut-off is given here; in the data, active means survival mostly below about 52% (no sharp cut-off); inactive means mostly above about 56%. The list shows a part of the results.

The assay concerns DeltatarO mutant. Description: S. aureus survival, RN4220 and DeltatarO strains – OD600, teichoic acid synthesis inhibitors, primary screen (AID 463173). The note with it: S. aureus RN4220 wild type/DeltatarO growth, OD600, 18 h, active compounds read low, screened at 18.75 µg/mL (by protocol).
As to `Cc1ccc(C(=O)Nc2nnc(S(=O)(=O)N3CCc4ccccc43)s2)cc1`, the survival is active: 26%.
With `Cc1ccccc1C(=O)Oc1c(Sc2ccccc2)c(C)nn1C(C)(C)C`, the survival was active: 21%.
In the case of `O=C(NCc1ccc(F)cc1)c1cc(-c2ccc(Cl)cc2)n[nH]1` it was inactive: 85%; in that of `O=C(Nc1cccnc1)c1cc(-c2cccc(Cl)c2)on1`, inactive: 115%.
In the case of `CN(C)c1ccc(-c2nc3ccccc3s2)cc1` it was inactive: 78%.
For `CCC(C)NC(=O)CCSc1nc(-c2ccc(OC)cc2)cc(C(F)(F)F)n1` (configuration not stated) the value was inactive: 122%; for `CCc1ccc(S(=O)(=O)c2nnn3c2nc(Nc2ccc(F)cc2)c2cc(Cl)ccc23)cc1`, inactive: 85%.
Regarding `O=C(O)c1cccc(Nc2ncnc3scc(-c4ccccc4)c23)c1`, the survival was inactive: 56%.
For `O=C(Nc1cccc(Br)c1)N1CCC(CN2CCCCCC2)CC1` the value was inactive: 89%; for `COc1cccc(CNC(=O)CN(c2ccc(C(C)C)cc2)S(=O)(=O)c2c(C)noc2C)c1`, inactive: 55%; for `Cc1cc(C)cc(Oc2c(C(F)(F)F)oc3cc(OCC(=O)NC4CCCCC4)ccc3c2=O)c1`, inactive: 110%.
As to `O=C(NN1C(=O)c2ccccc2C1=O)C1CC2CCC1C2` (configuration not stated), the survival was inactive: 74%.
In the case of `CCOC(=O)c1cc(-c2ccccc2)n(-c2cccc(C(=O)Nc3cc(OC)cc(OC)c3)c2)c1C`, the survival is inactive: 81%.
With `CCOC(=O)c1sc(NC(=O)c2cc3nc(-c4ccccc4)cc(C(F)(F)F)n3n2)c(C(=O)OCC)c1C`, the survival is inactive: 60%.
For `Cn1c(=O)oc2cc(S(=O)(=O)N3CCC(C(=O)Nc4ccc(F)c(Cl)c4)CC3)ccc21` the value was inactive: 68%; for `CCOc1ccc(NC(=O)c2cnc(Nc3ccccc3OC)c3ccccc23)cc1`, inactive: 50%; for `COc1ccc(CCNC(=O)Cn2ncc3c(=O)oc4ccccc4c32)c(OC)c1`, inactive: 89%.
As to `CCOc1ccc(NC(=O)c2oc3ccccc3c2NC(=O)c2cc(C)cc(C)c2)cc1`, the survival was inactive: 82%.
As to `COc1ccc(CC(=O)NCc2ccc3c(c2)CCN3C(=O)c2ccc(Cl)cc2)cc1`, the survival was inactive: 62%.
In the case of `CN1C(=O)/C(=C/C=C2/CCCN2C)N(C)C1=S` it was inactive: 91%; in that of `CCc1ccc2oc(-c3cc(NC(=O)c4cccnc4)cc(C)c3O)nc2c1`, inactive: 65%.
In the case of `CCOc1ccc(CCNC(=O)CCSCc2ccc(Cl)cc2)cc1OCC`, the survival is inactive: 92%.
`CCC(=O)N1CCc2cc(Br)cc(S(=O)(=O)N3CCCC(C(=O)Nc4cccc(F)c4)C3)c21` (configuration not stated): the survival is inactive: 76%.
Regarding `Cc1cccc(Cc2c(C)nc3nc(SCC(=O)NCc4ccccc4)nn3c2C)c1`, the survival is active: 40%.
In the case of `COc1ccccc1N1CCN(c2ncnc3c2cnn3-c2cccc(Cl)c2)CC1` it was active: -2%; in that of `CCN(Cc1ccccc1)S(=O)(=O)c1cc(C(=O)Nc2cc(Cl)cc(Cl)c2)ccc1F`, inactive: 78%.
In the case of `COc1ccc(-c2[nH]c(-c3cccc(OC)c3)nc2SCC(=O)NC2CCCC2)cc1` it was inactive: 119%; in that of `O=S(=O)(NCC(c1cccs1)S(=O)(=O)c1ccccc1)c1ccc(F)c(C(F)(F)F)c1` (configuration not stated), inactive: 92%; in that of `COc1ccc(-c2cn3nc(N4CCCC(C(=O)Nc5cc(C)cc(C)c5)C4)sc3n2)cc1` (configuration not stated), inactive: 75%.
In the case of `Cc1cc(C)c(S(=O)(=O)Nc2ccc(-c3ccc(N4CCCCCC4)nn3)cc2)c(C)c1` it was inactive: 84%.
For `CCCc1cc(C(=O)Nc2c(C)nn(Cc3c(Cl)cccc3Cl)c2C)no1`, the survival is inactive: 60%.
For `Cn1cnnc1SCC(=O)Nc1ccc(C#N)cc1` the value was inactive: 56%; for `COC(=O)c1ccc(OCC2c3cc(OC)c(OC)cc3CCN2C(=O)Cc2ccccc2)cc1` (configuration not stated), inactive: 93%; for `CN(CC(=O)NCc1ccccc1)S(=O)(=O)c1ccc2[nH]c3c(c2c1)CCCC3`, inactive: 96%.
Take `CC(=O)Nc1ccc2nc(SCCOc3cc(C)cc(C)c3)sc2c1`: the survival was inactive: 70%.
On to `COc1ccc(CCN2C(=O)NC(NS(=O)(=O)c3ccc(NC(C)=O)cc3)(C(F)(F)F)C2=O)cc1OC` (configuration not stated), for which the survival was inactive: 80%.
For `COc1cc(NC(=O)c2c(C)oc3c2C2=NCCN2C=N3)cc(OC)c1OC` the value was inactive: 81%; for `CC(=O)N1c2ccc(S(=O)(=O)NCC3CCC(C(=O)Nc4cc(C)ccc4C)CC3)cc2CC1C` (configuration not stated), inactive: 102%; for `COc1ccc(OCC(=O)NCc2ccc3c(c2)CCN3C(=O)c2ccc(F)cc2)cc1`, inactive: 119%.
For `CCN(CC)S(=O)(=O)c1ccc(C(=O)N2CC(=O)Nc3ccc(F)cc3C2c2ccccc2)cc1` (configuration not stated) the value was inactive: 74%; for `O=C(C1CCN(S(=O)(=O)c2ccc(Br)s2)CC1)N1CCN(c2ccccc2)CC1`, inactive: 86%.
Turning to `CC(C)(C)OC(=O)N1CCC(c2c(C(=O)NCCc3ccccc3)cnn2-c2ccc(F)cc2)CC1`, the survival is inactive: 88%.
In the case of `Cc1ccc(-n2c(=O)c3c(cnn3C)n(Cc3ccccc3F)c2=O)cc1` it was inactive: 89%; in that of `Cc1ccccc1-c1noc(-c2ccc(N3CCOCC3)c([N+](=O)[O-])c2)n1`, inactive: 62%.
For `Cn1c2ccccc2c2cnn(CC(=O)Nc3ccccc3C(F)(F)F)c(=O)c21` the value was inactive: 80%.
Regarding `CCN(CC)C(=O)c1sc2c(c1C)c(=O)n(-c1ccc(OC)cc1OC)c(=O)n2CC(=O)c1ccc(Cl)cc1`, the survival is inactive: 135%.
In the case of `CCn1cc(S(=O)(=O)c2ccccc2)c(=O)c2cc(F)c(N3CCN(c4ccccc4)CC3)cc21` it was inactive: 98%; in that of `O=C(Nc1ccc(OC(F)(F)F)cc1)C1CCN(S(=O)(=O)c2cccs2)CC1`, active: 21%.
In the case of `COc1cc(NC(=O)c2oc3c(c2C)-c2nn(Cc4cccc(Cl)c4)cc2CC3)cc(OC)c1`, the survival is inactive: 78%.
Take `CCOc1ccc(N(C(C)C(=O)Nc2cc(Cl)ccc2OC)S(C)(=O)=O)cc1` (configuration not stated): the survival was inactive: 52%.
Consider `Cc1ccccc1CCN(Cc1cc2c(C)ccc(C)c2[nH]c1=O)C(=O)c1cnccn1`, for which the survival was inactive: 98%.
In the case of `CN(C)c1ccc(/C=C(\C#N)c2nc(-c3ccc(Cl)c(Cl)c3)cs2)cc1`, the survival was inactive: 76%.
For `COc1cc(NC(=O)COCc2cc(-c3ccc4c(c3)OCO4)on2)cc(OC)c1` the value was inactive: 118%.
In the case of `CC(C)Cn1c(=O)c2ccccc2n2c(CCC(=O)NC(C)c3ccccc3)nnc12` (configuration not stated) it was inactive: 87%; in that of `Cc1onc(-c2c(Cl)cccc2Cl)c1C(=O)n1c(C)nc2ccccc21`, inactive: 86%; in that of `Cc1cc(C)c2nc(N(Cc3cccnc3)C(=O)c3cccs3)sc2c1`, inactive: 81%.
As to `CCOc1ccc(C2C(C(=O)Nc3ccccc3)=C(C)Nc3nc(SCc4cc(C)ccc4C)nn32)cc1` (configuration not stated), the survival is inactive: 123%.
For `N#Cc1ccc(C(=O)Nc2ccc3c(c2)N(C2CCCC2)C(=O)c2ccccc2S3)cc1` the value was inactive: 94%.
For `COc1ccc(Cl)cc1NC(=O)C1CC(=O)n2c(nc3ccccc32)N1` (configuration not stated) the value was inactive: 90%.
In the case of `CCc1nn(CC(=O)Nc2ccc(N(CC)CC)cc2C)c(=O)c2cc3sccc3n12` it was inactive: 77%.
`CC(C)Sc1ncc(Cl)c(C(=O)N(Cc2ccc(N(C)C)cc2)C2CCS(=O)(=O)C2)n1` (configuration not stated): the survival is inactive: 69%.
Take `Cc1ccc(Cn2c(CN3CCC(C(=O)NCCc4ccccc4)CC3)cc3ccccc32)cc1`: the survival is inactive: 85%.
For `Cc1ccc(-c2noc(-c3ccccc3NC(=O)C3CC(=O)N(c4ccccc4C)C3)n2)cc1` (configuration not stated) the value was inactive: 106%.
In the case of `CCn1ccc2c(OCC(=O)NCc3ccc(F)cc3)cccc2c1=O` it was inactive: 94%; in that of `O=C(NCCc1nc2ccccc2n1Cc1ccc(Cl)cc1Cl)c1ccco1`, active: 49%; in that of `COc1ccc(Nc2nc3ccc(C)cc3nc2-n2nc(C)cc2C)cc1Cl`, inactive: 69%.
In the case of `COc1ccccc1N1CCN(C(=O)Cn2ncc3c2-c2cc(C)ccc2OC3)CC1` it was inactive: 58%; in that of `COCCN1CCc2nc(SCC(=O)Nc3ccc(C)c(Cl)c3)[nH]c(=O)c2C1`, inactive: 76%.
For `COc1ccccc1NC(=O)CC1Sc2ccc(C(F)(F)F)cc2NC1=O` (configuration not stated), the survival was inactive: 76%.
Consider `CCOC(=O)c1cc2occc2n1CCc1ccccc1`, for which the survival was inactive: 101%.
Take `O=C(NCCCN=C1NS(=O)(=O)c2ccccc21)c1ccncc1`: the survival was inactive: 85%.
Regarding `Cc1ccc(-n2ncc(C(=O)Nc3ccc4c(c3)OCCO4)c2C2CCN(C(=O)OC(C)(C)C)CC2)cc1C`, the survival is inactive: 87%.
In the case of `Oc1ccc(N=Cc2ccccc2O)cc1`, the survival was inactive: 109%.
For `O=C(NC1CCCC1)c1cc2sccc2n1Cc1ccccc1` the value was inactive: 90%; for `COc1ccc(CNC(=O)c2cc(-c3ccc(Br)s3)nc3ccccc23)c(OC)c1`, inactive: 70%; for `CCOC(=O)c1sc2ncn(CC(=O)Nc3ccc(F)cc3F)c(=O)c2c1C`, inactive: 117%.
For `COC(=O)c1c(NC(=O)c2ccc(Cl)c(Cl)c2)sc2c1CCCC2` the value was inactive: 63%; for `CCOc1ccc(NC(=O)CSc2nnc3scc(-c4ccccc4)n23)cc1`, active: 17%.
For `COc1ccc(-c2onc(C)c2C)cc1S(=O)(=O)NCc1cccs1` the value was inactive: 74%; for `CCOC(=O)c1noc2ncn(CC(=O)Nc3ccc(F)cc3Cl)c(=O)c12`, active: -5%; for `Cc1ccc(OCCSc2nc3ccccc3n2CC(=O)N2CCOCC2)cc1`, inactive: 96%.
`CC1=C(C(=O)OCc2ccc(C)cc2)C(c2ccccc2C(F)(F)F)CC(=O)N1` (configuration not stated): the survival is inactive: 124%.
Consider `CC1CCCCN1Cc1c(O)ccc2c(=O)c(-c3ccc(Cl)cc3)c(C(F)(F)F)oc12` (configuration not stated), for which the survival is inactive: 138%.
For `CCOc1ccc(C(=O)Nc2ccc3c(c2)CCCN3S(=O)(=O)c2ccc(C)cc2)cc1` the value was inactive: 78%; for `Cc1ccc(C(c2nnnn2C(C)(C)C)N2CCC(C)CC2)cc1` (configuration not stated), inactive: 82%; for `COc1ccc(N(CC(=O)Nc2cc(OC)cc(OC)c2)S(=O)(=O)c2c(C)noc2C)cc1`, active: 45%.
For `COc1ccccc1-c1nnc(C2CCN(C(=O)c3ccccc3C)CC2)o1` the value was inactive: 82%.
